Assay results: PMC10192331
No constants are given. Whether binding was seen depends on the method and setting. For some assays here: Binding seen in cells or lysates may run through a third protein. Some binding calls cover weakened binding; strength is not graded here.

Amino acid sequences for entries named in this document (tags omitted). A change or cut given only in a name is not applied to a line headed by its entry. Chains listed by the source or under a name are the forms on record and can include a tag or linker.
UniProt P10415: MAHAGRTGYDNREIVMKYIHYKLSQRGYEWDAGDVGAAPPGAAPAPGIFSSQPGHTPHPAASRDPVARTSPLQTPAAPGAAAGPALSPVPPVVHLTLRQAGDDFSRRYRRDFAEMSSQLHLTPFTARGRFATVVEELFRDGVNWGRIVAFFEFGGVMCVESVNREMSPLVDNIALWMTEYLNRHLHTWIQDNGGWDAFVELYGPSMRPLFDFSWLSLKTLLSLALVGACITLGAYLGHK
UniProt Q14457: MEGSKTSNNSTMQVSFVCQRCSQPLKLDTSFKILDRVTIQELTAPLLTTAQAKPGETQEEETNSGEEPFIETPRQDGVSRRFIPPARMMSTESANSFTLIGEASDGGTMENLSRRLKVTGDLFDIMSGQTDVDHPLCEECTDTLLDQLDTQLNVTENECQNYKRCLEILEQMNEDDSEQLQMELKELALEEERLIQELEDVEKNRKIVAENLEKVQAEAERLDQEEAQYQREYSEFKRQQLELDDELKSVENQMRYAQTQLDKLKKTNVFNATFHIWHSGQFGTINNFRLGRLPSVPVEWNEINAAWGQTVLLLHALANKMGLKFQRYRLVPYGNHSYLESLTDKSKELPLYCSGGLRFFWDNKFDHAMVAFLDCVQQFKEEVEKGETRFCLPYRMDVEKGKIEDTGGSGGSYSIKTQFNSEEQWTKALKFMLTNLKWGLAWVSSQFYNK
UniProt P27546: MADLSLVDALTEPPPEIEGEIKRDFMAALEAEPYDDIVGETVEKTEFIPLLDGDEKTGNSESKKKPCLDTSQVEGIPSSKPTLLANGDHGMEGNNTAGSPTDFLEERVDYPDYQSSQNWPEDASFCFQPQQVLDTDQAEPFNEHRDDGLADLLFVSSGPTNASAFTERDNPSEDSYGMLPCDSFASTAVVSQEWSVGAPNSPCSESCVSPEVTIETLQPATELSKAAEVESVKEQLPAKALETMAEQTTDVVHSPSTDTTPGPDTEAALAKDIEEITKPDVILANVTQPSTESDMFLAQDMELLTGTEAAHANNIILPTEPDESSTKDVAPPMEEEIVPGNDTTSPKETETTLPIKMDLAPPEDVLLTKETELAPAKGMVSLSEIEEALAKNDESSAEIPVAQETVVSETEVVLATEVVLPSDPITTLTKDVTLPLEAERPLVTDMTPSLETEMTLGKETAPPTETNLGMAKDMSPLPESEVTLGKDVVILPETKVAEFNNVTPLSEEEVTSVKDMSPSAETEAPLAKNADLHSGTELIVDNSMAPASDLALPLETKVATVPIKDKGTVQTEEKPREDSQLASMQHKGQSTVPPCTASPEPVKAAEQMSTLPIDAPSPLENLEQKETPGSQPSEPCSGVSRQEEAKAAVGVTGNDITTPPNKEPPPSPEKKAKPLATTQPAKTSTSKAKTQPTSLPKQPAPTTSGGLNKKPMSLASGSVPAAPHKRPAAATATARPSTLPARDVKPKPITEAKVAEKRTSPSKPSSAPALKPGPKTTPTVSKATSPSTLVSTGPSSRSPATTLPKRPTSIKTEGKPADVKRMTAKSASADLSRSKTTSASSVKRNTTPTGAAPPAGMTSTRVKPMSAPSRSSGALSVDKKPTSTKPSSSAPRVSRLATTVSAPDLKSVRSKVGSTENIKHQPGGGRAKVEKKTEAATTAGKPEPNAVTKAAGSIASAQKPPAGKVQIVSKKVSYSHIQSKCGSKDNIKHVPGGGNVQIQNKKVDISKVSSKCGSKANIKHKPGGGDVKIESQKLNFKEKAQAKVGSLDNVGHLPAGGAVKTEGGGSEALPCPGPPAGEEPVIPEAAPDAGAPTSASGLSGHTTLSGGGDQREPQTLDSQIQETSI
HA-BH3-mutated MAP4 Glu (L83/G87/D88A and S737/S760E) (P27546, form named): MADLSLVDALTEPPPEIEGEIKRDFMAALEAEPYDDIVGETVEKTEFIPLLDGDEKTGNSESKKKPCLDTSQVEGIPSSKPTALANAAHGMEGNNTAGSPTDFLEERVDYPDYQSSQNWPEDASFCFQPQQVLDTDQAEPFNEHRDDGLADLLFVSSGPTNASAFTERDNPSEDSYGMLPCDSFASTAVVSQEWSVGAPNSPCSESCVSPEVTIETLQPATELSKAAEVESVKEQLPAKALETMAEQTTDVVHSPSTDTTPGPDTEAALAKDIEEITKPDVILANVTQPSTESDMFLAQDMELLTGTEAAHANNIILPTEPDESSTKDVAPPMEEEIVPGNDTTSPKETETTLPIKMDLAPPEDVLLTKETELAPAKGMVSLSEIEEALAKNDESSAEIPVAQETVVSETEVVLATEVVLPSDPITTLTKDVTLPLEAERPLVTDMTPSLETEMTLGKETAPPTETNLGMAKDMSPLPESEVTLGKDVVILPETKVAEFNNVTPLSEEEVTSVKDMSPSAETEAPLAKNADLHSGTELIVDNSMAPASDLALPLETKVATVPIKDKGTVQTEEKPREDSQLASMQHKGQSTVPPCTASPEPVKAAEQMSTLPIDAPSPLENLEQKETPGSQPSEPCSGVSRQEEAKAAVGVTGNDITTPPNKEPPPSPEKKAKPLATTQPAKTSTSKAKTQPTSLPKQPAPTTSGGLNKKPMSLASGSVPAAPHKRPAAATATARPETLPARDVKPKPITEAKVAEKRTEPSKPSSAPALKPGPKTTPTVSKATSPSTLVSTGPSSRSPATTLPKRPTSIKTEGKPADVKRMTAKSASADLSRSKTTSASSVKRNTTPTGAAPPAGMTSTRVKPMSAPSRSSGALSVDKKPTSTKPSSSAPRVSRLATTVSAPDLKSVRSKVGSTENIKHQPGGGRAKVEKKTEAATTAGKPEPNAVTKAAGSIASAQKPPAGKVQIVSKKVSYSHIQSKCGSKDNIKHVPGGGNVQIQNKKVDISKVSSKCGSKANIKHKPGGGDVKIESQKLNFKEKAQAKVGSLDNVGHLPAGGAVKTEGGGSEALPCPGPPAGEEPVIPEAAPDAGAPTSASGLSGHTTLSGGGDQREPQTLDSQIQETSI
HA-MAP4 (S737/760E, Glu) (P27546, form named): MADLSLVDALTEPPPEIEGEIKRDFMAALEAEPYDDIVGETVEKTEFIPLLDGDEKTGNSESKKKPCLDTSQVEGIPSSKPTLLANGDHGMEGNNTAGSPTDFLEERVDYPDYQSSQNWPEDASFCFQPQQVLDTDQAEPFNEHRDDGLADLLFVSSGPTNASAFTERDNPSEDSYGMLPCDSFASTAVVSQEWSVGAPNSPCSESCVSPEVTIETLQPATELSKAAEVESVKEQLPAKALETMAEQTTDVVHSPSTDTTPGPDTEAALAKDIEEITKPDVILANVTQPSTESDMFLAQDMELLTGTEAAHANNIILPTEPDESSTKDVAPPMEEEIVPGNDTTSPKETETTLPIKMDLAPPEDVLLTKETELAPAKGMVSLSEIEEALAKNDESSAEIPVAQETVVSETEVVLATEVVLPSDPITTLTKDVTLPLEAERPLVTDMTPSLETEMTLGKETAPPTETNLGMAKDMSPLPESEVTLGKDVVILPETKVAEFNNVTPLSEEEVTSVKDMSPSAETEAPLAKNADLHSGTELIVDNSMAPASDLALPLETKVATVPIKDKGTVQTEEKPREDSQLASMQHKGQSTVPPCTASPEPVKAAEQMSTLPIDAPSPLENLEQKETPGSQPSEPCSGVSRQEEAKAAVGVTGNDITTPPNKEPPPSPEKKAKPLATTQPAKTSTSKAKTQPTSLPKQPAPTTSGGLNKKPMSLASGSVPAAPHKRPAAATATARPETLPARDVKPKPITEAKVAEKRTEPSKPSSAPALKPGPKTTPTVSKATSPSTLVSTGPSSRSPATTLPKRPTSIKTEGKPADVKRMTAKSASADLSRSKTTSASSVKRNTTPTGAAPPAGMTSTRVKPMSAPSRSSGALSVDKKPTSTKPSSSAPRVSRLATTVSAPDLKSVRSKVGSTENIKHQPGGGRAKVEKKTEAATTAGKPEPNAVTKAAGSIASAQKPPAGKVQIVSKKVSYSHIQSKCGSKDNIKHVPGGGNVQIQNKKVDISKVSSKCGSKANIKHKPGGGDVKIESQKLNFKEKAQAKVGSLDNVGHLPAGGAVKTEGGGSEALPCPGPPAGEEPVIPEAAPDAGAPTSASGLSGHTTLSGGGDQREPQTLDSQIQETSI
UniProt P27816: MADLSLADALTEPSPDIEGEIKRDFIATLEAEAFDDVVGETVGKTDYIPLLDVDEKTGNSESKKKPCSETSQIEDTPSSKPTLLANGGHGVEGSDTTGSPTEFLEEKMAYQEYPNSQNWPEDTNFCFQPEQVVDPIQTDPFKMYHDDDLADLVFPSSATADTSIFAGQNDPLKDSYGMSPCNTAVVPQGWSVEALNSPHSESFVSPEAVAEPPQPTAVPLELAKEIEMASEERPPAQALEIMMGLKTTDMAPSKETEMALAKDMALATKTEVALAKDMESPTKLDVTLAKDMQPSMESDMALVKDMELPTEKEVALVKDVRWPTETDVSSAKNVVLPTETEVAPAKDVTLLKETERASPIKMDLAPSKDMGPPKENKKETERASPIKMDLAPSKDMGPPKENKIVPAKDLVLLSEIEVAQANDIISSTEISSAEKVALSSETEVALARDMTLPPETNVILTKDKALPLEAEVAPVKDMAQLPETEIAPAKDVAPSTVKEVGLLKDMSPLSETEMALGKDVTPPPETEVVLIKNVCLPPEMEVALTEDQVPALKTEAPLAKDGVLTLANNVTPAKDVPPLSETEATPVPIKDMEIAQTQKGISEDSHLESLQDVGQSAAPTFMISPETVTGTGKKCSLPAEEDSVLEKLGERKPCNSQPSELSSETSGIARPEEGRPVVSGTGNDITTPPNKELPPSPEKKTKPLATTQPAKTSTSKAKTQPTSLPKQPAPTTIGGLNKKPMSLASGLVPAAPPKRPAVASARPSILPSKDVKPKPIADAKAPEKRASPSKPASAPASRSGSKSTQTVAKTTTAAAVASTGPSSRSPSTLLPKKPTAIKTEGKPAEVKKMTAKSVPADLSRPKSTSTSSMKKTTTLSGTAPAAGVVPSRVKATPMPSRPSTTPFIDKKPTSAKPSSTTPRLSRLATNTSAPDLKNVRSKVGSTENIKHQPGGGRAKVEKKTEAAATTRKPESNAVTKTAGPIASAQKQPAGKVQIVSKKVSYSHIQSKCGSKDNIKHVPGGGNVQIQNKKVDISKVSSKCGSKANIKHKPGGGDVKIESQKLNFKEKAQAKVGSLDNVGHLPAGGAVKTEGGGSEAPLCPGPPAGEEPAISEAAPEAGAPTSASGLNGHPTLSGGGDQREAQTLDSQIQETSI

Legend:
[1] = target: Bcl-2, endogenous in HaCaT keratinocytes (human (endogenous in HaCaT)) (UniProt P10415); experiment: co-IP; endogenous proteins in HaCaT cells, control or hypoxia; RIPA lysate, MAP4, Bcl-2 or Beclin1 antibody 24 h at 4 °C, protein A/G-Sepharose, western blot
[2] = target: Bcl-2, endogenous in HaCaT keratinocytes (human (endogenous in HaCaT)) (UniProt P10415); experiment: co-IP; HaCaT cells transduced with MAP4 (Glu), MAP4 (Ala) or BH3-mutated MAP4 (Glu) adenovirus; RIPA lysate, protein A/G-Sepharose, western blot; Bcl-2 endogenous
[3] = target: Bcl-2, entire coding region, yeast two-hybrid bait (UniProt P10415); experiment: two-hybrid; pBT3-STE-Bcl-2 (bait) and pPR3-N-MAP4 (prey) co-transformed into yeast strain NMY51; growth selection on DDO, TDO or QDO plates at 30 °C for 3 days

| Substance | binding [1] | binding [2] | other results |
| --- | --- | --- | --- |
| Beclin1, endogenous in HaCaT keratinocytes (from UniProt Q14457 1-450) | binds |  |  |
| HA-BH3-mutated MAP4 Glu (L83/G87/D88A and S737/S760E) (from UniProt P27546 1-1125) |  | no binding |  |
| HA-MAP4 (S737/760E, Glu) (from UniProt P27546 1-1125) |  | binds |  |
| MAP4, endogenous in HaCaT keratinocytes (from UniProt P27816 1-1152) | binds |  |  |
| microtubule-associated protein 4 (MAP4), entire coding region, yeast two-hybrid prey (from UniProt P27546 1-1125) |  |  | binding [3]: binds |
